The whole screen tested about 310,000 compounds, of which about 2,200 (0.71%) showed an effect of 50% or more. Effects have a minus sign here. Some of the results follow.
Target: human ether-à-go-go-related gene (hERG) potassium channel (human, UniProt Q12809)
Experiment: primary screen, population patch clamp on CHO cells stably expressing hERG

Sequence of human ether-à-go-go-related gene (hERG) potassium channel (Q12809 whole entry, looked up): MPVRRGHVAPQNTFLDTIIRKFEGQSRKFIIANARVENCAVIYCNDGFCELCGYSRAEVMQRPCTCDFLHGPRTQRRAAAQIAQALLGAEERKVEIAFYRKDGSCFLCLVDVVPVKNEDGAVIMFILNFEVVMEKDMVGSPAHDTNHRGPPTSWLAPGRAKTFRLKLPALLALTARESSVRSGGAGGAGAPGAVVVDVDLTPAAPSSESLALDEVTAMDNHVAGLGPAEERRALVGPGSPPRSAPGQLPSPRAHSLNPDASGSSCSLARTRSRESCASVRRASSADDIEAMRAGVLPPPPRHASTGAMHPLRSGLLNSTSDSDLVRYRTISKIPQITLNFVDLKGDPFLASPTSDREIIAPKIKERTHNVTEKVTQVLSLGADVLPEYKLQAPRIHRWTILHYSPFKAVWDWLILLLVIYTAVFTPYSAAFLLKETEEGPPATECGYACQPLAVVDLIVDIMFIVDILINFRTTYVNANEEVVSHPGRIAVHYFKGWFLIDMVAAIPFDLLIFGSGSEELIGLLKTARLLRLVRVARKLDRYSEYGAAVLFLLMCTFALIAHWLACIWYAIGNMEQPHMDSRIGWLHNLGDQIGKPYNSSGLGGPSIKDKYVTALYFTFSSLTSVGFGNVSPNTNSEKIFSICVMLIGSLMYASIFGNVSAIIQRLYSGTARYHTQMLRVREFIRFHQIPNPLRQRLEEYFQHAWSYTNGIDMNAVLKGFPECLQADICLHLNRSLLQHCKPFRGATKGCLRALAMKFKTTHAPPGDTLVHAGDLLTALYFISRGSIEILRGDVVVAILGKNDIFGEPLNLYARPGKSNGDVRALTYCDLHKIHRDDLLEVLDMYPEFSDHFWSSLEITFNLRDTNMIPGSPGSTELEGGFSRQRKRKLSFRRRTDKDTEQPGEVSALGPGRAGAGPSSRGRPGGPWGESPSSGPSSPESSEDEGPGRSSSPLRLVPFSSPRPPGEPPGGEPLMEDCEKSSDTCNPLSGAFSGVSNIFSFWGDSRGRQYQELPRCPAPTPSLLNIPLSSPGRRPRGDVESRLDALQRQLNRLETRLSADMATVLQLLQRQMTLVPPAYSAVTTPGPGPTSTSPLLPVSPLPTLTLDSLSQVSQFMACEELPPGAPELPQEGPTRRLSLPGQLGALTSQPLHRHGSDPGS

| SMILES | hERG current change (%, negative = inhibition) at 1uM |
| --- | --- |
| C1CCc2c(nnc3c2-c2nonc2CC3)C1 | 5.18% |
| CCc1ccccc1NC(=O)C1CCN(S(=O)(=O)c2ccc3c(c2)N(C(C)=O)CCO3)CC1 | 13% |
| CCOC(=O)c1nc(C)n(-c2ccc([N+](=O)[O-])cc2)n1 | 10.3% |
| O=C(OCc1cccc(Cl)c1)c1cc(S(=O)(=O)N2CCCCC2)ccc1N1CCOCC1 | 12.9% |
| COc1cccc(CNc2nc(C(F)(F)F)nc3ccccc23)c1 | 10.4% |
| CCn1c(=O)c(C(=O)CN(C)Cc2ccc(F)cc2)c(N)n(Cc2ccccc2)c1=O | -33.6% |
| O=C(Cn1c(=O)c2c(ncn2C2CCCC2)n(Cc2ccccc2)c1=O)N1CCc2ccccc21 | 13.1% |
| CCn1c(SCC(=O)Nc2ccc(C(=O)OC)cc2)nnc1-c1cccs1 | -12.9% |
| O=C(O)c1ccccc1-c1ccccc1C(=O)NCc1cccnc1 | 17.6% |
| O=[N+]([O-])c1cccc(CCl)c1 | 2.67% |
| CN(CCOc1ccc(Br)cc1)CC(O)c1ccccc1.O=C(O)C(=O)O (centres unmarked) | -20.4% |
| Cc1cc(C(F)F)n2nc(C(=O)Nc3sc4c(c3C#N)CCC(C)C4)nc2n1 (centres unmarked) | 0.898% |
| COC(=O)c1ccccc1NC(=O)/C=N/O | 8.41% |
| N#Cc1nc(-c2ccc(OCc3ccc(Cl)cc3)cc2)oc1NCc1cccnc1 | 16.4% |
| COc1ccc(NC(=S)N2CCNC(=O)C2CC(=O)Nc2cccc(Cl)c2C)cc1 (centres unmarked) | -5.98% |
| O=C(CCCn1c(=S)[nH]c2cc3c(cc2c1=O)OCO3)NCc1cccc(Cl)c1 | 20% |
| CN(C)C1=NCCN1CCc1ccccc1 | 15.6% |
| Nc1nn(-c2ccccc2)nc1C(=O)OCc1ccccc1 | 10.3% |
| Cc1cccc(C2C3=C(CCCC3=O)N=C3c4ccccc4C(=O)C32)c1 (centres unmarked) | 7.81% |
| CCN(CC(=O)Nc1cc(Cl)ccc1OC)CC(=O)NC1CCS(=O)(=O)C1.O=C(O)C(=O)O (centres unmarked) | 4.29% |
| CCc1ccc(NC(=O)COc2ccc3c(c2)OCO3)cc1 | 13.1% |
| COCc1cc(=O)[nH]c(/N=C(\N)Nc2ccc(C)cc2)n1 | -15.3% |
| CC(=O)N1c2ccc(S(=O)(=O)NCCC(=O)Nc3ccccc3C)cc2CC1C (centres unmarked) | 10% |

| SMILES | hERG current change (%, negative = inhibition) at 1uM |
| --- | --- |
| c1ccc(OCCn2cnc3ccccc32)cc1 | 1.94% |
| Cc1cc(OC(=O)N(C)C)nc(SCc2c(Cl)cccc2Cl)n1 | 6.84% |
| C/C(CC(=O)Nc1cc(C)ccn1)=N\NC(=O)c1cccc(C)c1 | 7.83% |
| COc1ccccc1NS(=O)(=O)CC12CCC(CC1=O)C2(C)C (centres unmarked) | 8.45% |
| C/C(=N/NC(=O)Cc1c(C)[nH][nH]c1=O)c1ccc(O)cc1 | 16.5% |
| COCCCNC(=S)Nc1ccc(C)cc1[N+](=O)[O-] | -0.0239% |
| C=CCn1c(=N)c(S(=O)(=O)c2ccc(C)c(C)c2)cc2c(=O)n3ccccc3nc21 | 13.2% |
| CCOC(=O)C1(Cc2cccc(Cl)c2)CCCN(C(=O)c2cnn(CC)c2)C1 (centres unmarked) | 5.54% |
| O=C(O)CCNC(=O)CCCn1nnc2ccccc2c1=O | 15.9% |
| COc1cc(NC(=S)N(C)C)c(OC)cc1Cl | 11.9% |
| Fc1ccccc1NC(=S)N/N=C/c1ccccc1Br | 8.93% |
| Cc1ccc(-c2nc(-c3ccccn3)sc2CC(=O)O)cc1 | 6.81% |
| CCCCCCCC(=O)Nc1ccc(S(=O)(=O)Nc2nccs2)cc1 | 7.29% |
| CN(c1ccccc1)S(=O)(=O)c1cccc(C(=O)OCC(=O)NCCCN2CCCC2=O)c1 | 13.2% |
| O=C(NC1CCSC1=O)c1cccc(Cl)c1 (centres unmarked) | 6.05% |
| CCOc1ccc(-c2nnc3sc(COc4ccc(Cl)cc4)nn23)cc1 | 1.28% |
| Cc1ccc(S(=O)(=O)N2CCCC(C(=O)NCCc3ccc(S(N)(=O)=O)cc3)C2)cc1 (centres unmarked) | 11.7% |
| Clc1cccc(Cl)c1CNc1ccc(N2CCCC2)cc1 | 0.168% |
| O=C(c1ccc(F)cc1F)N1CCCc2ccccc21 | 10.3% |
| CCOCC(=O)Nc1ccc(S(=O)(=O)N2CCC(c3nc4ccccc4[nH]3)CC2)cc1 | 11.7% |
| CN(C(=O)CSc1nnc(-c2ccccc2)n1C)C1CCS(=O)(=O)C1 (centres unmarked) | 8.93% |
| COc1ccccc1/C=C/C=N/n1c(C2CCCCC2)n[nH]c1=S | 6.57% |
| Cc1ccc(Oc2ncc(CN3CCOCC3)s2)cc1 | 16.5% |

| SMILES | hERG current change (%, negative = inhibition) at 1uM |
| --- | --- |
| CCOc1ccc(NC(=S)NC(=O)/C=C/c2ccco2)cc1 | 11.5% |
| COc1cc(Br)c(CC(=O)NC2CC2)cc1OC | 15.3% |
| Cn1c(CCN2CCOCC2)nc2cc(NC(=O)COc3ccc(Cl)cc3)ccc21 | 2% |
| CC(C)NC(=O)c1ccc2c3n(nc2c1)-c1ccccc1CO3 | 10% |
| Cc1ccc(C)n1C(CC(=O)O)c1ccc(C#N)cc1 (centres unmarked) | 11% |
| CN1CCN(C(=O)c2ccc(COc3ccc(Cl)cc3Cl)cc2)CC1 | -4.16% |
| CC(=O)Nc1ccc(Nc2nnc(-c3ccc(C)c(S(=O)(=O)NCC4CCCO4)c3)c3ccccc23)cc1 (centres unmarked) | 7.6% |
| COc1cc(CCC(=O)Nc2ccncc2Cl)cc(OC)c1OC | 1.85% |
| COCCn1c(SCC(=O)Nc2ccc(OC)cc2OC)nc2ccccc2c1=O | 11.1% |
| CCc1nnc(NS(=O)(=O)c2ccc(NC(=S)NC(=O)c3ccc(F)cc3)cc2)s1 | 9.42% |
| CN(C)C(CNS(=O)(=O)c1ccc(F)cc1)c1cccnc1 (centres unmarked) | 27.6% |
| CC(=O)N=c1c(C#N)cc2c(=O)n3cccc(C)c3nc2n1Cc1ccco1 | 6.34% |
| O=C(CC1S/C(=N/N=C/C=C/c2ccccc2)NC1=O)Nc1ccc(Cl)c(Cl)c1 (centres unmarked) | 19.1% |
| O=C(NNc1c(F)c(F)cc(F)c1F)c1cc2ccccc2oc1=O | 8.46% |
| CC(=O)Nc1ccc(NC(=O)CSc2nc(N)c(NC(=O)c3ccccc3F)c(=O)[nH]2)cc1 | 5.84% |
| CCOC(=O)C1C(=O)C=C(c2ccc(C)cc2)CC1c1cccc([N+](=O)[O-])c1 (centres unmarked) | 7.82% |
| CO/N=C1\CCCc2c(C(=O)NN)sc(SC)c21 | 12.5% |
| Fc1ccc(-c2ccnc3nc(N4CCN(c5ccccc5)CC4)nn23)cc1 | -3.15% |
| Cc1c(C(=O)NCc2cccnc2)sc2nc(-c3ccccc3)cn12 | -7.66% |
| CC(=O)N/C(=C/c1ccc(OS(=O)(=O)c2ccc(C)cc2)cc1)C(=O)NCCCO | 4.99% |
| Cl.O=C(CCN1CCN(CCO)CC1)Nc1ccc(C2CCCC2)cc1 | -2.4% |
| Cc1ccc(C(=O)Nc2cccc(C(=O)N/N=C/c3ccc(F)cc3)c2)cc1 | 10.7% |
| O=C(CCCn1c(=S)[nH]c2cc3c(cc2c1=O)OCO3)N1CCN(c2ccccc2F)CC1 | 10.3% |

| SMILES | hERG current change (%, negative = inhibition) at 1uM |
| --- | --- |
| COc1ccc(C(=O)[C@H]2[C@H]3C(=O)N(c4ccc(OC(C)=O)cc4)C(=O)[C@H]3C3C=CC=NN32)cc1 (some centres unmarked) | 11.1% |
| O=C(CNC(=O)c1cccnc1)N/N=C/c1cccnc1 | 7.34% |
| Cc1nnc(Sc2cc(C(=O)NCCCOC(C)C)c3ccccc3n2)s1 | 0.612% |
| Cc1cc(C(=O)Nc2cccc(O)c2)co1 | 14.1% |
| C=CCN1C(=O)CS/C1=N/c1nccs1 | -3.15% |
| COc1ccc(C=O)cc1CN1CCCN(Cc2ccc(Cl)cc2)S1(=O)=O | 14.1% |
| CN(C(=O)c1ccncc1)C1CCCN(Cc2ccccc2F)C1 (centres unmarked) | 12.1% |
| NS(=O)(=O)c1ccc(CCNC(=O)CCCOc2ccccc2)cc1 | 2.47% |
| C[C@@H](NC(=O)c1coc(=O)c(Br)c1)c1ccccc1 | 9.7% |
| Cn1cc(CC(=O)N2CCN(c3ccccc3F)CC2)c2ccccc21 | 22% |
| Cc1ccccc1C(=O)NNC(=O)Cc1ccccc1 | 4.51% |
| CCOC(=O)c1c(C)[nH]c(C(=O)COC(=O)c2oc3ccccc3c2C)c1C | 11.1% |
| O=C(COc1ccccc1)OC(C(=O)c1ccccc1)c1ccccc1 (centres unmarked) | 14.1% |
| COc1ccc(NC(=O)Nc2ccc3c(c2)N(C)C(=O)CS3)cc1OC | 7.61% |
| COc1cccc(NC(=O)c2cc(S(=O)(=O)N3CCc4ccccc43)cn2C)c1 | 19.2% |
| Nc1c(C(=O)CSc2nnc(-c3ccccc3)o2)c(=O)[nH]c(=O)n1C1CC1 | 14.9% |
| COc1ccc(C2(O)CCN(CCCCOc3ccccc3)CC2)cc1 | -43.9% |
| COc1ccccc1C(=O)N/N=C/c1ccc2c(c1)OCO2 | 16.7% |
| Cc1cc(C)c2ccc(NN)nc2c1O | 8.88% |
| Cc1ccc(C(=O)Cn2cnc3ccccc3c2=O)cc1 | 15.6% |
